{"source": "paper PMC5892938", "note": "The list shows a part of the results. At the low end of the ranking, values are background and their order means little."}
{"target": "GST-SBP-SLBP (stem-loop binding protein) (UniProt Q14493)", "test": "targeted RNA Bind-n-Seq;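 also: DESeq read counts versus GST-SBP nonspecific binding control pulldown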", "conditions": "RBNS binding buffer: 25 mM Tris pH 7.5, 150 mM KCl, 3 mM MgCl2, 0.1% Tween, 0.5 mg/mL BSA, 1 mM DTT; 27 nM protein, 750 pM RNA pool; temperature not stated; high values mean tight binding"}
{"sequence": "GGUCACGUCUCAAUCAACUCAUCCCCAGGAGUUUACUCCUGUAAUCUCAACAGCUCGCAGUCAAG", "binding signal (log2 fold change)": 0.0671}
{"sequence": "GGUCACGUCUCAAUCAACUCAUCGUCAGGAGUUUUCUCCUGCAAUCUCAACAGCUCGCAGUCAAG", "binding signal (log2 fold change)": 0.0443}
{"sequence": "GGUCACGUCUCAAUCAACUCAUCCUCAGGAGUUUCCUCCUGUAUUUUCAACAGCUCGCAGUCAAG", "binding signal (log2 fold change)": 0.141}
{"sequence": "GGUCACGUCUCAAUCAACUCCCACGAGGGGGGGAAAACCCCUUUACCCUCAAUAUCAACAGCUCGCAGUCAAG", "binding signal (log2 fold change)": -0.374}
{"sequence": "GGUCACGUCUCAAUCAACUCUAUCUCAGGAGUUUUCUCCUGUAUACUCAACAGCUCGCAGUCAAG", "binding signal (log2 fold change)": 0.0393}
{"sequence": "GGUCACGUCUCAAUCAACUCAUCCUCAGGAGUUUACUCCUGUUAAGUCAACAGCUCGCAGUCAAG", "binding signal (log2 fold change)": 0.23}
{"sequence": "GGUCACGUCUCAAUCAACUCUUCGUCCAGGGAAAUCCCUGGCAAUUUCAACAGCUCGCAGUCAAG", "binding signal (log2 fold change)": -0.0382}
{"sequence": "GGUCACGUCUCAAUCAACUCAUCCGAGGGGGGGAAAACCCCUUUACCCUCAAUUUCAACAGCUCGCAGUCAAG", "binding signal (log2 fold change)": 0.0859}
{"sequence": "GGUCACGUCUCAAUCAACUCAGUCCCCAGGGAAAACCCUGGUUAAUUCAACAGCUCGCAGUCAAG", "binding signal (log2 fold change)": -0.295}
{"sequence": "GGUCACGUCUCAAUCAACUCUUUCCCCAGGGAAACCCCUGGCUUUUUCAACAGCUCGCAGUCAAG", "binding signal (log2 fold change)": 0.0218}
{"sequence": "GGUCACGUCUCAAUCAACUCUACUUCAGGAGUUUUCUCCUGCUAACUCAACAGCUCGCAGUCAAG", "binding signal (log2 fold change)": 0.214}
{"sequence": "GGUCACGUCUCAAUCAACUCUUUCGCAGGAGUUUUCUCCUGGUAAUUCAACAGCUCGCAGUCAAG", "binding signal (log2 fold change)": -0.0421}
{"sequence": "GGUCACGUCUCAAUCAACUCUUUUCCCAGGGAAAGCCCUGGUAAUCUCAACAGCUCGCAGUCAAG", "binding signal (log2 fold change)": 0.077}
{"sequence": "GGUCACGUCUCAAUCAACUCAUCGUCAGGAGUUUACUCCUGUAAAUUCAACAGCUCGCAGUCAAG", "binding signal (log2 fold change)": 0.0178}
{"sequence": "GGUCACGUCUCAAUCAACUCAGUCUCCAGGGAAAACCCUGGUUUUUUCAACAGCUCGCAGUCAAG", "binding signal (log2 fold change)": -0.208}
{"sequence": "GGUCACGUCUCAAUCAACUCUUCCCCCAGGGAAACCCCUGGUUAAUUCAACAGCUCGCAGUCAAG", "binding signal (log2 fold change)": 0.102}
{"sequence": "GGUCACGUCUCAAUCAACUCAUAAGAGGGGGGGAAAACCCCUUUACCCUCAAUCUCAACAGCUCGCAGUCAAG", "binding signal (log2 fold change)": -0.0836}
{"sequence": "GGUCACGUCUCAAUCAACUCAUUUUCAGGAGUUUGCUCCUGCAUUUUCAACAGCUCGCAGUCAAG", "binding signal (log2 fold change)": 0.0474}
{"sequence": "GGUCACGUCUCAAUCAACUCUUCUUCAGGAGUUUCCUCCUGUUUACUCAACAGCUCGCAGUCAAG", "binding signal (log2 fold change)": 0.0029}
{"sequence": "GGUCACGUCUCAAUCAACUCUAUUUCAGGAGUUUCCUCCUGCAUUUUCAACAGCUCGCAGUCAAG", "binding signal (log2 fold change)": 0.0837}
{"sequence": "GGUCACGUCUCAAUCAACUCCUUAGAGGGGGGGAAAACCCCUUUGCCCUCAAUCUCAACAGCUCGCAGUCAAG", "binding signal (log2 fold change)": 0.0801}
